From PubChem BioAssay AID463173 (ICCB-Longwood Screening Facility, Harvard Medical School, 2010)
Screen size: about 52,000 compounds; about 4,300 (8.3%) were called active. Cut-off read from the data, not from the text of the source: active = survival mostly below about 52% (no sharp cut-off); inactive = mostly above about 56%. Some of the results follow.

Test system: DeltatarO mutant
Test: S. aureus survival, RN4220 and DeltatarO strains – OD600, teichoic acid synthesis inhibitors, primary screen (AID 463173)
Settings: S. aureus RN4220 wild type/DeltatarO growth, OD600, 18 h, hits give low values, screened at 18.75 µg/mL (by protocol)

Q: `COc1ccc(C2CCN(C(=O)N(C(C)C)C(C)C)CC2)cc1` was tested. Which survival did it give?
A: The survival was inactive: 94%.

Q: How did the survival turn out when `COc1ccc(-c2cc3ccc(O)c(CN4CCN(C)CC4)c3oc2=O)cc1OC` was run?
A: The survival was inactive: 98%.

Q: How did the survival turn out when `Cc1ccccc1OCC(=O)Nc1ccc2nc(SCC(=O)N3CCCC3)sc2c1` was run?
A: Its survival is inactive: 52%.

Q: `O=C1Cc2cc(S(=O)(=O)Nc3ccc(OC(F)(F)F)cc3)cc3c2N1CCC3` was tested. Which survival did it give?
A: The survival was inactive: 144%.

Q: `O=C(O)CCn1cnc2sc3c(c2c1=O)CCCC3` was tested. Which survival did it give?
A: The survival was inactive: 105%.

Q: With `Cc1ccccc1NC(=O)C1C2CCCCC21` (centres undefined) as the molecule, how does the survival read?
A: The survival was inactive: 83%.

Q: Which survival does the source give for `CCOC(=O)c1cc(-c2ccc(OC)c(S(=O)(=O)N3CCN(c4ccccc4)CC3)c2)on1` here?
A: Its survival is inactive: 92%.

Q: `COc1ccc(S(=O)(=O)c2nnn(-c3cccc(Cl)c3)c2N)cc1` was tested. Which survival did it give?
A: Its survival is inactive: 56%.

Q: For `CCOC(=O)c1c(-c2ccc(OC)c(OC)c2)csc1NC(=O)c1ccccc1F`, which survival is on record?
A: The survival was inactive: 73%.

Q: With `COc1ccccc1Nc1nc(-c2ccccc2)c(CC(=O)O)s1` as the molecule, how does the survival read?
A: The survival was inactive: 71%.

Q: How did the survival turn out when `COc1ccc2c(c1)c1c(c(=O)n(-c3cccc(C)c3)c(=O)n1CC(=O)NCCC1=CCCCC1)n2C` was run?
A: The survival was inactive: 71%.

Q: With `Cc1cccc(CNS(=O)(=O)c2ccc(-c3coc(C)n3)cc2)c1` as the molecule, how does the survival read?
A: The survival was inactive: 99%.

Q: For `Cc1ccc2nc3c(cc(C(=O)NC4CCCC4)c(=N)n3C(C)C)c(=O)n2c1`, which survival is on record?
A: The survival was inactive: 72%.

Q: Which survival does the source give for `O=c1c2cccnc2n(Cc2cccc(F)c2)c(=O)n1Cc1ccc(F)cc1` here?
A: Its survival is inactive: 118%.

Q: How did the survival turn out when `CCC(Nc1ccc(-c2nc(-c3cccnc3)no2)cc1[N+](=O)[O-])c1ccccc1` (centres undefined) was run?
A: The survival was inactive: 64%.

Q: `COc1ccc2[nH]cc(CCNC(=O)Nc3cc(C)cc(C)c3)c2c1` was tested. Which survival did it give?
A: The survival was inactive: 91%.

Q: For `O=C(Nc1ccc(Cl)c(-c2nc3ccccc3o2)c1)c1cccc2c(Cl)cccc12`, which survival is on record?
A: Its survival is inactive: 84%.

Q: Which survival does the source give for `COc1ccc(Nc2ccc3cc(S(=O)(=O)N4CCCC4)ccc3n2)cc1OC` here?
A: Its survival is inactive: 73%.

Q: For `Cc1ccc(CSC2=Nc3ccccc3C3=NC(CCC(=O)NCc4cccs4)C(=O)N23)c(C)c1` (centres undefined), which survival is on record?
A: Its survival is inactive: 76%.

Q: With `Fc1ccc(-c2nc3c4c(-c5ccccc5)c(-c5ccccc5)oc4ncn3n2)cc1` as the molecule, how does the survival read?
A: Its survival is inactive: 74%.

Q: Which survival does the source give for `Cc1cc(N2CCN(C)CC2)nc2ccc(NC(=O)Nc3ccc(F)cc3F)cc12` here?
A: Its survival is inactive: 73%.

Q: With `CCOC(=O)c1ccc(N2CCN(c3cc(Cl)ccc3C)CC2)c(NC(=O)Nc2ccc(OCC)cc2)c1` as the molecule, how does the survival read?
A: The survival was inactive: 90%.

Q: Which survival does the source give for `CCC(Oc1ccccc1)C(=O)N1CCN(Cc2cc(=O)n3nc(-c4cccc(C)c4)sc3n2)CC1` (centres undefined) here?
A: Its survival is inactive: 98%.

Q: Which survival does the source give for `COc1cccc(-c2ccc3c(N)c(C(=O)c4ccc(F)cc4)sc3n2)c1` here?
A: Its survival is active: 17%.

Q: With `CC(NC(=O)CCCN1C(=O)CCn2nc(-c3cn(C)c4ccccc34)cc21)c1ccccc1` (centres undefined) as the molecule, how does the survival read?
A: Its survival is inactive: 88%.

Q: `O=C(CSc1nnc(-c2cccnc2)o1)N(C1CCCCC1)C1CCCCC1` was tested. Which survival did it give?
A: The survival was inactive: 82%.

Q: Which survival does the source give for `CCOC(=O)c1c(C)oc2nc(C)nc(NCC3CCN(Cc4ccc(F)cc4)CC3)c12` here?
A: Its survival is inactive: 102%.

Q: Which survival does the source give for `COc1ccc(CNc2ncnc3c2cnn3-c2ccc(Cl)cc2)cc1` here?
A: Its survival is inactive: 71%.

Q: For `CC(C)c1ccc(NC(=O)c2cc(S(=O)(=O)N3CCc4ccccc4C3)ccc2F)cc1`, which survival is on record?
A: Its survival is inactive: 118%.

Q: `CCCCOC(=O)c1ccc(NC2=NS(=O)(=O)c3ccccc32)cc1` was tested. Which survival did it give?
A: The survival was inactive: 66%.

Q: How did the survival turn out when `Cc1nn(-c2ccc(N3CCCC3)nn2)c(C)c1CCC(=O)Nc1ccccc1` was run?
A: Its survival is inactive: 83%.

Q: How did the survival turn out when `Cc1cccc(NC(=O)CCn2nc(C)c3c(C)n(-c4ccccc4)nc3c2=O)c1C` was run?
A: The survival was inactive: 57%.

Q: With `Cc1ccc2cc(CN(Cc3cccnc3)C(=O)c3cccnc3)c(=O)[nH]c2c1` as the molecule, how does the survival read?
A: Its survival is inactive: 106%.

Q: `Cc1ccc(-c2nc3n(n2)C(=O)CC(c2ccc(C)cc2)S3)cc1` (centres undefined) was tested. Which survival did it give?
A: The survival was inactive: 90%.

Q: For `Cc1ccc(-n2c(=O)c3c(c4cc(C)ccc4n3C)n(CC(=O)NCC3CCCO3)c2=O)cc1` (centres undefined), which survival is on record?
A: Its survival is inactive: 82%.

Q: `Cc1ccc(NS(=O)(=O)c2c(C)nc3sccn3c2=O)c(Cl)c1` was tested. Which survival did it give?
A: The survival was inactive: 132%.

Q: With `Cc1cc(OCc2nnc(SCC(=O)OC(C)C)o2)ccc1Cl` as the molecule, how does the survival read?
A: Its survival is inactive: 96%.

Q: How did the survival turn out when `COc1cc(Cl)c(NC(=O)CC(C)S(=O)(=O)c2cc3c(cc2C)NC(=O)CO3)c(OC)c1` (centres undefined) was run?
A: Its survival is inactive: 86%.

Q: Which survival does the source give for `Cc1ccc(NC(=O)CSc2nncn3c2cc2sccc23)cc1F` here?
A: The survival was inactive: 61%.

Q: Which survival does the source give for `CC1=C(C(=O)Nc2ccccc2)C(c2ccco2)C(C#N)=C(SCC(=O)Nc2ccccc2)N1` (centres undefined) here?
A: The survival was inactive: 89%.

Q: For `CCOc1ccc(S(=O)(=O)N(CC(=O)NCCc2ccc(OC)cc2)c2ccccc2)cc1`, which survival is on record?
A: Its survival is inactive: 92%.

Q: Which survival does the source give for `COc1ccccc1N1CCN(c2c(CN3CCCC3)c(=O)oc3ccccc23)CC1` here?
A: The survival was inactive: 91%.

Q: `O=C(Nc1ccc(Cl)c(Cl)c1)N(Cc1c[nH]c2ccccc12)C1CCCCC1` was tested. Which survival did it give?
A: The survival was inactive: 69%.

Q: How did the survival turn out when `COC(=O)c1ccc([C@H]2Nc3ccc(S(=O)(=O)Nc4ccc(F)cc4)cc3[C@H]3C=CC[C@H]32)cc1` was run?
A: The survival was active: 53%.
